Reference: PubChem BioAssay AID894 (National Center for Advancing Translational Sciences (NCATS), 2007)
“And” between values parts separate entries of the source, which are not always exact repeats. Identical values can stand only once. About 6,500 (4.3%) of roughly 150,000 compounds were called active. The shares of active, inactive and inconclusive entries below differ from those in the screen. The call rests on the fitted dose curve; in most records, active means well fitted inhibition curve with a large enough effect (not every such curve was filed as active); inconclusive means small, poorly fitted or top-dose-only effect, or another doubt; inactive means no such curve, though single readings can be large or run the other way. No potency is given beside an inconclusive call; the fits are too rough.

target: 15-hydroxyprostaglandin dehydrogenase [NAD(+)] (Homo sapiens) (UniProt P15428); experiment: qHTS Assay for Inhibitors of HPGD (15-Hydroxyprostaglandin Dehydrogenase); settings: purified HPGD, NADH fluorescence kinetic, PGE2 substrate; activity change, negative = inhibition: stronger effect = lower value
Chain of UniProt P15428 (P15428 whole entry, looked up): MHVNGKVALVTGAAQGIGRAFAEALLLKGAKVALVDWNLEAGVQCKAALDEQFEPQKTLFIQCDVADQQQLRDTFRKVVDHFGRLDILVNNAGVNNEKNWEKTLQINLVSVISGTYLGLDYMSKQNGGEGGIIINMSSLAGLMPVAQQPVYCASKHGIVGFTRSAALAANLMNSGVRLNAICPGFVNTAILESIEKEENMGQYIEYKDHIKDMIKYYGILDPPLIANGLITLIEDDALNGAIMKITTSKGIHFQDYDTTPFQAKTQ
How it was run: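 20 nM HPGD preincubated 15 min at room temperature with compound in 50 mM Tris-HCl pH 8, 0.01% Tween 20. Started with 1 mM NAD+ and 30 uM prostaglandin E2; NADH fluorescence (360/450 nm) read 5 times over 30-s intervals, last minus first.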
On the % scale 0 is the no-effect control and ±100 the full control effect; potency means the concentration at half of the fitted maximal effect; tags describe the fitted curve by direction and shape.

Compound	Potency	activity change, negative = inhibition
CCOc1cc(CNn2cn[nH]c2=S)cc(Cl)c1OCc1ccccc1F	inconclusive [inhibitor, partial curve]	
CC(C)(C)C1CCC2(CC1)NC(=S)N(c1ccccc1)N2 (stereo unspecified)	active: 11.2 µM	
OCCN1CCN(CCCN2c3ccccc3C=Cc3ccccc32)CC1		inactive: -15.5% and inactive: -13.5%
CCN(CC)c1ccc(/C=N/NC(=O)Nc2nonc2N)cc1	inconclusive [inhibitor, partial curve]	
CS(=O)(=O)c1nc(-c2ccccc2)cc(C(F)(F)F)n1	inconclusive [inhibitor, partial curve]	
Cc1cc(NC(=O)c2cc(-c3cccs3)nc3ccccc23)no1	inconclusive [inhibitor, partial curve]	
CCCc1ccc(/C=C2\C(=O)c3ccccc3C(O)=C2C(=O)OCC)cc1	active: 4.47 µM	
CCSc1nnc(NC(=O)C2Cc3ccccc3CN2C(=O)c2ccco2)s1 (stereo unspecified)		inactive: -10.2%
CSc1ccc(Cl)c(C(=O)NCCOc2ccccc2)c1	inconclusive [inhibitor, partial curve]	
Cc1ccccc1NC(=O)Cc1nc(CCl)cs1	active: 20 µM	
COC(=O)c1ccc(N(C(=O)c2ccco2)C(C(=O)NC2CCCC2)c2ccco2)cc1 (stereo unspecified)		inactive: 4.06%
CCN(CC)S(=O)(=O)c1cc(C(=O)OCC(=O)Nc2cccc(C)c2C)ccc1F		inactive: -3.56%
CN(CCO)c1cc(N2CCN(C(=O)c3ccco3)CC2)c2nonc2c1[N+](=O)[O-]		inactive: -17.5%
COc1ccc(/C=N/NC(=O)COc2cccc3ccccc23)c(C(=O)O)c1OC	inconclusive [inhibitor, partial curve]	
CCOC(=O)CSc1nnc(CSc2nc3sc4c(c3c(=O)[nH]2)CCC4)n1-c1ccccc1	active: 8.91 µM	
COc1ccc(C)cc1NC(=O)c1cc2ccccc2cc1OCC(=O)NCc1ccco1	inconclusive [inhibitor, partial curve]	
Cc1ccccc1NC(=S)N=Nc1c(O)n(C)c2ccc(S(=O)(=O)N3CCOCC3)cc12	inconclusive [inhibitor, partial curve, poor fit]	
CCOc1ccc(NC(=S)NC(=O)/C=C/c2ccc(C)cc2)c([N+](=O)[O-])c1	inconclusive [inhibitor, partial curve]	
CC1CCC(=C(C#N)c2nc(-c3cc4ccccc4oc3=O)cs2)CC1 (stereo unspecified)	inconclusive [inhibitor, partial curve]	
CC(=O)N1CCc2cc(C(=O)CN3CCN(c4cccc(Cl)c4)CC3)ccc21		inactive: -10.6%
CC(C)(C)c1ccc(-c2nnc(SCC(=O)c3ccc4c(c3)OCCO4)o2)cc1		inactive: -16.7%
Cc1ccc2[nH]c3nc(SCCN4CCOCC4)nnc3c2c1		inactive: -16.1%
CCOc1cc(-c2nc3cc(C)ccn3c2NCC2CCCO2)ccc1O (stereo unspecified)	inconclusive [inhibitor, single point]	
c1ccc2cc(-c3csnn3)ccc2c1	inconclusive [inhibitor, single point]	

Compound	Potency	activity change, negative = inhibition
Cc1ccccc1-c1cc(C(=O)Nc2sc(C)c(C)c2C(N)=O)c2ccccc2n1	active: 31.6 µM	
CC(=O)Nc1nc(C)c(S(N)(=O)=O)s1		inactive: -5.23%
CCOC(=O)c1c(NC(=O)c2cccnc2)sc(C)c1C	inconclusive [inhibitor, single point]	
O=C1c2cccc(OCC(=O)N3CCCc4ccccc43)c2CCN1Cc1ccc(F)cc1		inactive: -13.4%
CCC(Sc1ncccc1C(=O)Oc1cccc([N+](=O)[O-])c1)C(=O)Nc1ccccc1OC (stereo unspecified)		inactive: -14%
COc1ccc(OCC(=O)Nc2cccc(-c3nc4ccccc4o3)c2)cc1	inconclusive [inhibitor, partial curve]	
Cc1cc(C(F)F)n2nc(C(=O)Nc3ccc(S(=O)(=O)N4CCCC4)cc3)nc2n1	inconclusive [inhibitor, partial curve]	
N#Cc1cc(C(=O)c2cc(Br)ccc2O)cn(C2CC2)c1=O	active: 17.8 µM	
COc1ccc(NC(=O)c2oc3ccccc3c2NC(=O)c2ccc3c(c2)OCO3)cc1	inconclusive [inhibitor, single point]	
Cc1nc2cnc(N3CCNCC3)nc2n(Cc2ccc(F)cc2)c1=O	inconclusive [inhibitor, partial curve]	
CCOC(=O)c1[nH]c2ccc(F)cc2c1NC(=O)c1cc(OC)c(OC)c(OC)c1	inconclusive [inhibitor, partial curve]	
Clc1ccc(-c2nnc(-c3ccccc3)o2)c(Cl)c1	inconclusive [inhibitor, partial curve]	
CCn1nc([N+](=O)[O-])c(C(C#N)c2nc3cc(C(F)(F)F)ccc3s2)c(Cl)c1=O (stereo unspecified)	inconclusive [inhibitor, single point]	
Cc1c(C(=O)c2no[n+]([O-])c2C(=O)c2cnn(C)c2C)cnn1C		inactive: -16.5%
COc1ccc(C(NC(C)=O)c2c(O)ccc3ccccc23)cc1OC (stereo unspecified)	inconclusive [inhibitor, partial curve]	
O=C1C=CC(=O)N1CCCCCCN1C(=O)C=CC1=O	active: 2.24 µM	
O=C(COc1cccc2ccccc12)N/N=C/c1ccc(Sc2nc3ccccc3s2)o1	active: 28.2 µM	
Cc1ccc(-n2cc[nH]c2=S)cc1C	active: 22.4 µM	
CCC(Sc1nc(-c2ccccc2)c(C#N)c(=O)[nH]1)C(=O)Nc1nnc(C)s1 (stereo unspecified)	inconclusive [inhibitor, partial curve]	
COC(=O)c1cc2nc(-c3ccc(OC)cc3)cc(C(F)(F)F)n2n1	inconclusive [inhibitor, partial curve]	
COc1nc(OC)nc(N2CCCCCC2)n1		inactive: 4.59%
CCN(CC)C(=O)C(C)N(C#N)c1nc(NC(C)C)nc(NC(C)C)n1 (stereo unspecified)		inactive: -8.19%
Cn1c(=O)c(=O)n(C)c2cc(S(=O)(=O)Nc3ccc4c(c3)OCCO4)ccc21	active: 25.1 µM	
O=C(NCCCc1ccccc1)C1CCN(c2nnc(-n3cccc3)s2)CC1	inconclusive [inhibitor, partial curve]	

Compound	Potency	activity change, negative = inhibition
COc1cc(CNCCc2c[nH]c3ccccc23)ccc1OCc1ccc(F)cc1		inactive: -6.05%
COc1ccc(-c2n[nH]c(=S)n2C2CCCCC2)cc1	active: 17.8 µM	
COC(=O)[C@@]1(Cc2ccccc2)[C@H]2c3cc(C(=O)N(C)C)n(Cc4cc(F)c(F)c(F)c4)c3C[C@H]2CN1C(=O)c1ccccc1		inactive: -12.1%
Cc1ccc(-c2ccc(/C=N/N=C3/NC(=O)C(CC(=O)O)S3)o2)c([N+](=O)[O-])c1 (stereo unspecified)	active: 17.8 µM	
CC(=O)C(=Nc1ccccc1Cl)NNc1ccc(Cl)cc1		inactive: -28%
CSc1nc2n(n1)C(c1ccccn1)C1=C(CC(C)(C)CC1=O)N2 (stereo unspecified)	inconclusive [inhibitor, partial curve]	
COc1cc(C2C=C(Nc3ccccc3)C(=O)N2c2ccccc2)ccc1O (stereo unspecified)	inconclusive [inhibitor, partial curve]	
CCc1ccccc1NC(=O)CSc1nc(-c2ccccc2)nn1C(=O)c1cccc([N+](=O)[O-])c1	active: 12.6 µM	
Fc1ccc(Nc2nc(N3CCOCC3)c3ccccc3n2)cc1	inconclusive [inhibitor, partial curve]	
CC(C)c1ccc(NC(=O)c2snc3ccc(Cl)cc23)cc1	inconclusive [inhibitor, partial curve]	
O=C(O)c1ccc(N2Cc3ccccc3C2)cc1O	active: 15.8 µM	
CN(C)c1ccc(/C=N\NC(=S)SCN2C(=O)C3CCC(C)(C2=O)C3(C)C)cc1 (stereo unspecified)	inconclusive [inhibitor, partial curve]	
O=C1CCCC2=C1C(c1cccs1)n1nc(SCc3ccccc3)nc1N2 (stereo unspecified)	inconclusive [inhibitor, partial curve]	
CCN(Cc1cc2cc(OC)ccc2[nH]c1=O)C(=O)Cc1ccc(OC)cc1	inconclusive [inhibitor, partial curve]	
COc1ccc(CCn2c(N3CCN(C)CC3)nc3c2c(=O)[nH]c(=O)n3C)cc1		inactive: -9.56%
Cn1c2ccccc2c2ncn(CCCN3CCOCC3)c(=O)c21	inconclusive [inhibitor, single point]	
O=C(c1ccc(F)cc1)c1ccc(N2CCCC2)cc1	active: 28.2 µM	
CC(=O)OC1CC2C(C)(C)C(=O)[C@@H]3OC3[C@@]2(C)C2CC[C@]3(C)C(=CC(=O)OC3c3ccoc3)[C@]12C (stereo partly specified)		inactive: -2.39%
COC(=O)CSc1ncnc2c1sc1nc(N3CCOCC3)c3c(c12)CCCC3	inconclusive [inhibitor, partial curve]	
O=c1cc(-c2cccc(O)c2)oc2ccc(O)cc12	active: 7.08 µM	
Cc1nc(N[C@@H](Cc2c[nH]c3ccccc23)C(=O)O)c2oc3ccccc3c2n1	inconclusive [inhibitor, single point]	
O=C(N/N=C/c1sc(=O)n(-c2ccccc2)c1Cl)c1ccncc1		inactive: -21.7%
Cc1cc(C)n(CC(O)Cn2c3ccccc3c3ccccc32)n1 (stereo unspecified)	inconclusive [inhibitor, partial curve]	
